Measurements: the antibiotic and cytotoxicity screens of Wong et al. (2023)
Some of the results follow.

Tests used:
HSkMC = human skeletal muscle cells; experiment: cytotoxicity call (relative viability < 0.9); settings: 10 µM
HepG2 = experiment: cytotoxicity call (relative viability < 0.9); settings: 10 µM
S. aureus RN4220 = experiment: growth inhibition call (relative growth <= 0.2); settings: 50 µM

C[C@@H]1CCCCO[C@H](CN(C)S(=O)(=O)c2cn(C)cn2)[C@@H](C)CN([C@@H](C)CO)C(=O)c2cc(NC(=O)c3ccncc3)ccc2O1
inactive: cytotoxicity call (HSkMC) | cytotoxicity call (HepG2) | growth inhibition call (S. aureus RN4220)

O=C(O)Cn1cnc(C2CC2)cc1=O
inactive: cytotoxicity call (HSkMC) | cytotoxicity call (HepG2) | growth inhibition call (S. aureus RN4220)

COc1ccc(C(=O)O)cc1
inactive: cytotoxicity call (HSkMC) | cytotoxicity call (HepG2) | growth inhibition call (S. aureus RN4220)

CN1CCNC1=S
inactive: cytotoxicity call (HSkMC) | cytotoxicity call (HepG2) | growth inhibition call (S. aureus RN4220)

Cc1ccc(S(=O)(=O)N(C)C[C@H]2OCCCC[C@@H](C)Oc3ccc(NS(C)(=O)=O)cc3C(=O)N([C@H](C)CO)C[C@@H]2C)cc1
inactive: cytotoxicity call (HSkMC) | cytotoxicity call (HepG2) | growth inhibition call (S. aureus RN4220)

Cc1noc(C)c1NC(=O)Nc1cccc2c1O[C@H](CN(C)Cc1ccc(C(F)(F)F)cc1)[C@H](C)CN([C@@H](C)CO)C2=O
inactive: cytotoxicity call (HSkMC) | cytotoxicity call (HepG2) | growth inhibition call (S. aureus RN4220)
